The other results are listed elsewhere or left out. Antibody binding of pooled human sera (four to six donors per pool; dilution not stated) to peptides of the Trypanosoma cruzi antigen TSSA on microarrays. Quantile-normalised fluorescence in arbitrary units, mean of duplicate arrays; higher = more binding. No active / inactive call. The uninfected pools are read here as the healthy donors of the same country. The strongest signals lie near the top of the scale (about 60,000).

The subject of the experiment is pooled sera of chronic Chagas disease patients, Argentina. Nature of the experiment: antibody binding signal (normalised fluorescence) (arbitrary fluorescence units); higher = stronger serum antibody binding to peptide. Here is the method:
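Microarray of 15-residue peptides over residues 30-55 of Trypanosoma cruzi TSSAII, each with 1 to 10 substitutions at naturally variable positions, probed with one serum pool per country.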
For the sequence GKENKAAAGGAPSPP, the antibody binding signal came to 1080. As for ENKPATGETPSQPGA, the figure is 40700; as for ISTPPSGTENKTAAG, 53400; as for STPPSGTENKAATGE, 47400. The sequence TPPSGKDNKPAAGEA showed an antibody binding signal of 18700. As for TENKAATGEAPSQSG, the figure is 32300; as for TEKKPATGGTPSPPG, 1680; as for GKDNKAAAGGTPSPP, 345. Consider DKKTATGETPSPPGA, for which the antibody binding signal was determined as 301. With DKKAATGGTPSQSGA the figure was 581. As for KENKAAAGETPSPPG, the figure is 182; as for DNKTAAGETPSPPGA, 310.

For the sequence NKTAAGETPSPSGAS, the antibody binding signal stood at 277. As for KEKKTATGGAPSQSG, the figure is 736. Regarding KEKKPATGGAPSPPG, the antibody binding signal is 469. With GTEKKPATGEAPSQS the figure was 47200. With TISTPPSGKENKPAT the figure was 19600; with TPPSGTDKKTAAGET, 15400. Sequence SGKDNKAAAGEAPSQ registered an antibody binding signal of 1030.

Turning to TEKKTAAGEAPSPPG, the antibody binding signal was found to be 676. As for KPATGETPSQSGASS, the figure is 35800; as for GTDNKAATGGTPSQP, 419. With KDNKPAAGGTPSPPG the figure was 183; with DKKTATGEAPSQPGA, 13700; with KDNKTAAGEAPSQPG, 5540.

In the case of GTDKKTAAGGTPSQP, the antibody binding signal came out at 636.

GKENKPATGETPSPP registered an antibody binding signal of 35700. The sequence GTENKAATGEAPSPP gave an antibody binding signal of 36100. With TENKPAAGGAPSQSG the figure was 45900. As for GTDKKPATGGAPSPP, the figure is 893; as for KENKAATGETPSQSG, 3840. In turn, GTENKPAAGGAPSPP showed an antibody binding signal of 44800.

GKENKPATGGAPSQS registered an antibody binding signal of 6610.

Regarding STPPSGKENKTAAGE, the antibody binding signal was found to be 39400. With SGTDNKTAAGETPSQ the figure was 423. Take TEKKPAAGGAPSQSG: the antibody binding signal stood at 1010. With SGKDKKPAAGGTPSP the figure was 607; with TENKAAAGGTPSQSG, 34400. As for TENKAAAGETPSPPG, the figure is 33800; as for EKKPATGGAPSQSGA, 1780.

The values are drawn from the supplement of paper PMC10441789.
